The supplement of paper PMC12217912
This is one part of the list. Sequences were assembled here from the parent chain. Values near 0.05 are background.

B1: TEV protease; numbered along this chain (parent)
chain: MGESLFKGPRDYNPISSSICHLTNESDGHTTSLYGIGFGPFIITNKHLFRRNNGTLVVQSLHGVFKVKDTTTLQQHLVDGRDMIIIRMPKDFPPFPQKLKFREPQREERICLVTTNFQTKSMSSMVSDTSCTFPSGDGIFWKHWIQTKDGQCGSPLVSTRDGFIVGIHSASNFTNTNNYFTSVPKNFMELLTNQEAQQWVSGWRLNADSVLWGGHKVFMVKPEEPFQPVKEATQL

Variants of: B1
Experiment: raw area under fraction-flipped curve 0-4 h after induction (AUC4h, not background-subtracted), DNA-recorder readout of cleavage of the substrate (dimensionless); higher = more cleavage of the substrate by the protease variant
Settings: temperature: 34 °C; time window: 0-4 h after rhamnose induction
Method: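 In vivo DNA recorder in E. coli TOP10(DE3) ΔrhaA at 34 °C. Each TEVp single-site mutant (parent TEVp 0) is paired with a single-site variant of the 7-mer TEVs (canonical ENLYFQ|S). The substrate sits between flexible linkers in a Bxb1-sfGFP-TEVs-SsrA fusion, so cleavage stabilises Bxb1 and speeds flipping of a recombination array, read by NGS. The value is the raw area under the fraction-flipped curve over 0-4 h after rhamnose induction (AUC4h), with ≥20 reads per time point. It is not background-subtracted; inactive controls average about 0.047.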
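Further: Bxb1 expression induced with 0.2% (w/v) L-rhamnose at OD600 near 0.5, cultures sampled hourly, flipped fraction per protease–substrate barcode pair counted by paired-end Illumina sequencing.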

MGESLFKGPRDYNPISSSICHLTNESDGHTTSLYGIGFGPFIITNKHLFRRNNGTLVVQSLHGVFKVKDTTTLQQHLVDGRDMIIIRMPKDFPPFPQKLKFREPQREERICLVTTNFQTKSMSSMVSDTSCTFPSGDGIFWKHWIQTKDGQCGSPLVSTRDGFIVGIHSASNFTNTNNYFTSVPKNFMELLTNQEAQQWVSGWRLNADSVLWGGHKVFMVKPEEPFQPVKEATQE [L235E]
area with substrate ENLYDQS: 0.0485 | area with substrate ENLYEQS: 0.069 | area with substrate ENLYNQS: 0.0634 | area with substrate ENLYWQS: 0.124 | area with substrate ENLYYQS: 0.057

MGESLFKGPRDYNPISSSICHLTNESDGMTTSLYGIGFGPFIITNKHLFRRNNGTLVVQSLHGVFKVKDTTTLQQHLVDGRDMIIIRMPKDFPPFPQKLKFREPQREERICLVTTNFQTKSMSSMVSDTSCTFPSGDGIFWKHWIQTKDGQCGSPLVSTRDGFIVGIHSASNFTNTNNYFTSVPKNFMELLTNQEAQQWVSGWRLNADSVLWGGHKVFMVKPEEPFQPVKEATQL [H29M]
area with substrate ENLYDQS: 0.0617 | area with substrate ENLYEQS: 0.0726 | area with substrate ENLYHQS: 0.061 | area with substrate ENLYIQS: 0.143 | area with substrate ENLYKQS: 0.0507 | area with substrate ENLYLQS: 0.119 | area with substrate ENLYMQS: 0.106 | area with substrate ENLYNQS: 0.0635 | area with substrate ENLYPQS: 0.076 | area with substrate ENLYRQS: 0.0654 | area with substrate ENLYTQS: 0.0748 | area with substrate ENLYVQS: 0.188 | area with substrate ENLYWQS: 0.0983 | area with substrate ENLYYQS: 0.0594

MGESLFKGPRDYNPISSSICHLTNESDGHTTSLYGIGFGPFIITNKHLFRRNNGTLVVQSLHGVFKVKDTTTLQQHLVDGRDMIIIRMPKDFPPFPQKLKFREPQREERICLVTTNFQTKSMSSMVSDTSCTFPSGDGIFWKHWIQTKDGQCGSPLVSTRDGFIVGIHSASNFTNTNNYFTSVPKNFMELLTNQEAQTWVSGWRLNADSVLWGGHKVFMVKPEEPFQPVKEATQL [Q198T]
area with substrate ENLYDQS: 0.0566 | area with substrate ENLYEQS: 0.0709 | area with substrate ENLYGQS: 0.0628 | area with substrate ENLYHQS: 0.0542 | area with substrate ENLYIQS: 0.131 | area with substrate ENLYKQS: 0.0672 | area with substrate ENLYMQS: 0.0888 | area with substrate ENLYPQS: 0.0614 | area with substrate ENLYQQS: 0.0644 | area with substrate ENLYRQS: 0.0604 | area with substrate ENLYVQS: 0.124

MGESLFKGPRDYNPISSSICHLTNESDGHTTSLYGIGFGPFIITNKHLFRRNNGTLVVQSLHGVFKVKDTTTLQQHLVDGRDMIIIRMPKDFPPFPQKLKFREPQREERICLVTTNFQTKSMSSMVSDTSCTFPSGDGIFWKHWIQTKDGQCGSPLVSTRDGFIVGIHSASNFTNTNNYFTSVPKNFMELLTNQEAQQWVSGWRLNADSVLWGGHKVFMVKPEEPFQPVKEAMQL [T233M]
area with substrate ENLYDQS: 0.0518 | area with substrate ENLYEQS: 0.0655 | area with substrate ENLYGQS: 0.0765 | area with substrate ENLYHQS: 0.0733 | area with substrate ENLYIQS: 0.12 | area with substrate ENLYKQS: 0.0399 | area with substrate ENLYMQS: 0.0776 | area with substrate ENLYPQS: 0.0709 | area with substrate ENLYQQS: 0.0146 | area with substrate ENLYVQS: 0.119 | area with substrate ENLYWQS: 0.0635

MGESLFKGPRDYNPISSSICHLTNESDGHTTSLYGIGFGPFIITNKHLFRRNNGTLVVKSLHGVFKVKDTTTLQQHLVDGRDMIIIRMPKDFPPFPQKLKFREPQREERICLVTTNFQTKSMSSMVSDTSCTFPSGDGIFWKHWIQTKDGQCGSPLVSTRDGFIVGIHSASNFTNTNNYFTSVPKNFMELLTNQEAQQWVSGWRLNADSVLWGGHKVFMVKPEEPFQPVKEATQL [Q59K]
area with substrate ENLYDQS: 0.0477 | area with substrate ENLYEQS: 0.0698 | area with substrate ENLYIQS: 0.119 | area with substrate ENLYNQS: 0.0662 | area with substrate ENLYPQS: 0.0695 | area with substrate ENLYQQS: 0.0532 | area with substrate ENLYRQS: 0.0735 | area with substrate ENLYSQS: 0.0768 | area with substrate ENLYVQS: 0.164

MGESLFKGPRDYNPISSSICHLTNESDGHTTSLYGIGFGPFIITNKHLFRRNNGTLVVQSLHGVFKVKDTTTLQQHLVDGRDMIIIRMPKDFPPFPQKLKFREPQREERICLVTTNFQTKSMSSMVSDTSCTFPSGDGIFWKHWIQTKDGQCGSPLVSTRDGFIVGIHSYSNFTNTNNYFTSVPKNFMELLTNQEAQQWVSGWRLNADSVLWGGHKVFMVKPEEPFQPVKEATQL [A170Y]
area with substrate ENLYDQS: 0.0654 | area with substrate ENLYEQS: 0.0534 | area with substrate ENLYGQS: 0.0526 | area with substrate ENLYHQS: 0.0721 | area with substrate ENLYKQS: 0.0621 | area with substrate ENLYNQS: 0.0628 | area with substrate ENLYPQS: 0.0603 | area with substrate ENLYQQS: 0.0732 | area with substrate ENLYVQS: 0.058 | area with substrate ENLYWQS: 0.0561 | area with substrate ENLYYQS: 0.0352

MGESLFKGPRDYNPISSSICHLTNESDGHTTSLYGIGFGQFIITNKHLFRRNNGTLVVQSLHGVFKVKDTTTLQQHLVDGRDMIIIRMPKDFPPFPQKLKFREPQREERICLVTTNFQTKSMSSMVSDTSCTFPSGDGIFWKHWIQTKDGQCGSPLVSTRDGFIVGIHSASNFTNTNNYFTSVPKNFMELLTNQEAQQWVSGWRLNADSVLWGGHKVFMVKPEEPFQPVKEATQL [P40Q]
area with substrate ENLYDQS: 0.0662 | area with substrate ENLYEQS: 0.0662 | area with substrate ENLYGQS: 0.0661 | area with substrate ENLYHQS: 0.107 | area with substrate ENLYIQS: 0.133 | area with substrate ENLYKQS: 0.0381 | area with substrate ENLYLQS: 0.107 | area with substrate ENLYMQS: 0.0958 | area with substrate ENLYNQS: 0.0746 | area with substrate ENLYQQS: 0.0646 | area with substrate ENLYSQS: 0.0717 | area with substrate ENLYTQS: 0.0768 | area with substrate ENLYVQS: 0.162 | area with substrate ENLYWQS: 0.0868

MGESLFKGPRDYNPISSSICHLTNESDGHTTSLYGIGFGPFIITNKHLFRRNNGTLVVQSLHGVFKVKDTTTLQQHLVDGRDMIIIRMPKDFPPFPQKLKFREPQREERICLVTTNFQTKSMSSMVSDTSCTFPSGDGIFWKHWIQTKDGQCGSPLVSTRDGFIVGIHSASNFTNTNNYFTSVPKNFMELLTNQNAQQWVSGWRLNADSVLWGGHKVFMVKPEEPFQPVKEATQL [E195N]
area with substrate ENLYDQS: 0.0529 | area with substrate ENLYEQS: 0.082 | area with substrate ENLYGQS: 0.0752 | area with substrate ENLYHQS: 0.0752 | area with substrate ENLYKQS: 0.0722 | area with substrate ENLYNQS: 0.0597 | area with substrate ENLYPQS: 0.0261 | area with substrate ENLYRQS: 0.0582 | area with substrate ENLYVQS: 0.122 | area with substrate ENLYWQS: 0.0806

MGESLFKGPRDYNPISSSICHLTNESDGHTTSLYGIGFGPFIITNKHLFRRNNGTLVVQSLHGVFKVKDRTTLQQHLVDGRDMIIIRMPKDFPPFPQKLKFREPQREERICLVTTNFQTKSMSSMVSDTSCTFPSGDGIFWKHWIQTKDGQCGSPLVSTRDGFIVGIHSASNFTNTNNYFTSVPKNFMELLTNQEAQQWVSGWRLNADSVLWGGHKVFMVKPEEPFQPVKEATQL [T70R]
area with substrate ENLYDQS: 0.07 | area with substrate ENLYEQS: 0.0538 | area with substrate ENLYGQS: 0.0604 | area with substrate ENLYHQS: 0.0548 | area with substrate ENLYIQS: 0.0865 | area with substrate ENLYKQS: 0.0407 | area with substrate ENLYNQS: 0.0524 | area with substrate ENLYPQS: 0.0641 | area with substrate ENLYQQS: 0.0873 | area with substrate ENLYVQS: 0.121 | area with substrate ENLYWQS: 0.064 | area with substrate ENLYYQS: 0.0496

MGESLFKGPRDYNPISSSICHLTNESDGHTTSLYGIGFGPFIITNKHLFRRNNGTLVVQSLHGVFKVKDTTTLQQHLVDGRDMIIIRMPKDFPPFPQKLKFREPQREERICLVTTNFQTKSMSSMVSDTSCTFPSGDGIFWKHWIQTKDGQCGSPLVSTRDGFGVGIHSASNFTNTNNYFTSVPKNFMELLTNQEAQQWVSGWRLNADSVLWGGHKVFMVKPEEPFQPVKEATQL [I164G]
area with substrate ENLYDQS: 0.0591 | area with substrate ENLYEQS: 0.0573 | area with substrate ENLYGQS: 0.0625 | area with substrate ENLYHQS: 0.0512 | area with substrate ENLYKQS: 0.0621 | area with substrate ENLYMQS: 0.059 | area with substrate ENLYNQS: 0.0575 | area with substrate ENLYPQS: 0.0364 | area with substrate ENLYQQS: 0.0549 | area with substrate ENLYRQS: 0.0549 | area with substrate ENLYSQS: 0.0429 | area with substrate ENLYVQS: 0.0569 | area with substrate ENLYWQS: 0.0317 | area with substrate ENLYYQS: 0.063
